Source: the supplement of paper PMC4967469
IC50 is the fitted dose that halves viability relative to control wells, and lower means more sensitive; where the fit passes the top or lowest dose, that dose stands as a limit. The AUC spans the tested range (256-fold, ending at the top dose) of the same fit; values near 1 show little effect. For some of these results: A top dose marked as inferred comes from the curve model; the source does not state it.

Experiments:
Assay in all cases: Viability of human cancer cell lines after 72 h of drug (GDSC screen)
Bexarotene = compound: C=C(c1ccc(C(=O)O)cc1)c1cc2c(cc1C)C(C)(C)CCC2(C)C [Bexarotene]; settings: top dose 8 µM
Procedure: (§1)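 Human cancer cell lines in 384-well plates, medium with 10% serum, drug for 72 h over a 256-fold dose range (nine 2-fold or five 4-fold steps up to the top dose). Adherent lines were fixed and stained with the nucleic acid dye Syto60, suspension lines read with resazurin; signal relative to control wells, capped at 0 and 100%. One two-parameter sigmoid per drug and line, fitted in a mixed model over all curves with the slope shared within a line.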

NPK76-II-72-1 = compound: COc1cc(C(=O)NC2CCN(C)CC2)ccc1Nc1ncc2c(n1)N(C1CCCC1)C(C)CC(=O)N2C [NPK76-II-72-1]; settings: top dose 10.24 µM; top dose inferred
Procedure: as §1

BMS-345541 = compound: Cc1ccc2nc(NCCN)c3ncc(C)n3c2c1 [BMS-345541]; settings: top dose 16 µM
Procedure: as §1

AZD7762 = compound: NC(=O)Nc1cc(-c2cccc(F)c2)sc1C(=O)N[C@H]1CCCNC1 [AZD7762]; settings: top dose 2 µM
Procedure: as §1

GSK-650394 = compound: O=C(O)c1ccc(-c2c[nH]c3ncc(-c4ccccc4)cc23)cc1C1CCCC1 [GSK-650394]; settings: top dose 16 µM; top dose inferred
Procedure: as §1

XAV 939 = compound: Oc1nc(-c2ccc(C(F)(F)F)cc2)nc2c1CSCC2 [XAV 939]; settings: top dose 5 µM; top dose inferred
Procedure: as §1

YK 4-279 = compound: COc1ccc(C(=O)CC2(O)C(=O)Nc3c(Cl)ccc(Cl)c32)cc1 [YK 4-279]; settings: top dose 10 µM
Procedure: as §1

Row | Cell Line | AUC (Bexarotene) | IC50 (Bexarotene) | AUC (NPK76-II-72-1) | IC50 (NPK76-II-72-1) | AUC (BMS-345541) | IC50 (BMS-345541) | AUC (AZD7762) | IC50 (AZD7762) | AUC (GSK-650394) | IC50 (GSK-650394) | AUC (XAV 939) | IC50 (XAV 939) | AUC (YK 4-279) | IC50 (YK 4-279)
1 | A101D (melanoma, adherent) | 0.965 | > 8 µM | 0.908 | > 10.2 µM | 0.974 | > 16 µM | 0.704 | 542 nM | 0.688 | 3.82 µM | 0.936 | > 5 µM |  | 
2 | A172 (glioma, adherent) |  |  | 0.895 | > 10.2 µM | 0.916 | > 16 µM |  |  | 0.869 | 13.8 µM | 0.956 | > 5 µM | 0.731 | 2750 nM
3 | A375 (melanoma, adherent) | 0.861 | 4.89 µM | 0.891 | 8.21 µM | 0.895 | 13.3 µM |  |  | 0.76 | 4.74 µM | 0.976 | > 5 µM | 0.599 | 1110 nM
4 | A2058 (melanoma, adherent) | 0.947 | > 8 µM | 0.949 | > 10.2 µM | 0.899 | > 16 µM | 0.704 | 437 nM | 0.843 | 9.59 µM | 0.966 | > 5 µM |  | 
5 | AGS (stomach, adherent) | 0.961 | > 8 µM | 0.927 | > 10.2 µM | 0.886 | 14.5 µM | 0.711 | 458 nM | 0.804 | 7.04 µM |  |  |  | 
6 | BALL-1 (B-cell leukaemia, suspension) |  |  |  |  |  |  | 0.422 | 80.8 nM |  |  | 0.995 | > 5 µM | 0.85 | 4640 nM
7 | BT-549 (breast, adherent) |  |  |  |  |  |  | 0.668 | 443 nM |  |  | 0.921 | > 5 µM | 0.734 | 3860 nM
8 | CAPAN-1 (pancreas, adherent) | 0.928 | > 8 µM | 0.887 | > 10.2 µM | 0.921 | > 16 µM | 0.684 | 434 nM | 0.923 | > 16 µM | 0.985 | > 5 µM |  | 
9 | CHP-212 (neuroblastoma, adherent) | 0.871 | 6.59 µM | 0.988 | > 10.2 µM | 0.884 | 14.9 µM | 0.502 | 127 nM | 0.878 | 14.1 µM | 0.986 | > 5 µM |  | 
10 | CL-34 (large intestine, adherent) |  |  |  |  |  |  | 0.874 | > 2000 nM |  |  | 0.983 | > 5 µM | 0.827 | 6990 nM
11 | CL-40 (large intestine, adherent) |  |  |  |  |  |  | 0.825 | > 2000 nM |  |  | 0.929 | > 5 µM | 0.798 | 9360 nM
12 | CML-T1 (chronic myeloid leukaemia, suspension) |  |  |  |  |  |  | 0.488 | 117 nM |  |  | 0.97 | > 5 µM | 0.778 | 3350 nM
13 | COLO-792 (melanoma, adherent) | 0.988 | > 8 µM | 0.987 | > 10.2 µM | 0.879 | 15.9 µM |  |  | 0.907 | > 16 µM | 0.956 | > 5 µM | 0.672 | 1860 nM
14 | COR-L32 (small cell lung carcinoma, suspension) |  |  |  |  |  |  |  |  |  |  | 0.913 | > 5 µM | 0.958 | > 10000 nM
15 | CRO-AP2 (B-cell lymphoma, suspension) |  |  |  |  |  |  | 0.547 | 165 nM |  |  | 0.989 | > 5 µM | 0.499 | 621 nM
16 | HCC1806 (breast, adherent) | 0.965 | > 8 µM | 0.658 | 1.69 µM | 0.887 | 15.4 µM |  |  | 0.969 | > 16 µM | 0.987 | > 5 µM | 0.666 | 1730 nM
17 | HCT-15 (large intestine, adherent) | 0.9 | > 8 µM | 0.976 | > 10.2 µM | 0.925 | > 16 µM | 0.901 | > 2000 nM | 0.668 | 3.02 µM | 0.985 | > 5 µM |  | 
18 | HT-29 (large intestine, adherent) | 0.948 | > 8 µM | 0.7 | 2.34 µM | 0.877 | > 16 µM |  |  | 0.781 | 6.63 µM |  |  | 0.669 | 1850 nM
19 | J82 (bladder, adherent) | 0.89 | > 8 µM | 0.983 | > 10.2 µM | 0.919 | > 16 µM |  |  | 0.73 | 4.49 µM | 0.969 | > 5 µM | 0.794 | 4580 nM
20 | Jurkat (T-cell leukaemia, suspension) |  |  |  |  |  |  | 0.751 | 557 nM |  |  |  |  | 0.569 | 931 nM
21 | KG-1 (acute myeloid leukaemia, suspension) | 0.988 | > 8 µM | 0.52 | 0.721 µM | 0.886 | 14.4 µM |  |  | 0.853 | 10.5 µM | 0.981 | > 5 µM | 0.638 | 1440 nM
22 | LOXIMVI (melanoma, semi-adherent) | 0.981 | > 8 µM | 0.896 | > 10.2 µM | 0.901 | > 16 µM |  |  | 0.99 | > 16 µM | 0.976 | > 5 µM | 0.722 | 2440 nM
23 | M059J (glioma, adherent) | 0.978 | > 8 µM | 0.839 | 7.86 µM | 0.889 | > 16 µM | 0.822 | 1290 nM | 0.916 | > 16 µM | 0.974 | > 5 µM |  | 
24 | MZ2-MEL (melanoma, adherent) | 0.897 | > 8 µM | 0.957 | > 10.2 µM | 0.882 | > 16 µM | 0.876 | > 2000 nM | 0.762 |  | 0.967 | > 5 µM |  | 
25 | NCI-H522 (lung adenocarcinoma, adherent) | 0.916 | > 8 µM | 0.717 | 2.99 µM | 0.785 | 8.27 µM |  |  | 0.778 | 7.72 µM | 0.967 | > 5 µM | 0.811 | 6540 nM
